According to the BET-seq Pho4 binding data (Le et al. 2018):
The other results are listed elsewhere or left out. The energies were worked out here from pooled read counts, against the library average; single values are noisy.

Each sequence was assayed against T1, Pho4 (S. cerevisiae) (UniProt P07270) (assay: relative binding free energy (BET-seq); higher = weaker binding). Details: reference: library average.
T1 sequence: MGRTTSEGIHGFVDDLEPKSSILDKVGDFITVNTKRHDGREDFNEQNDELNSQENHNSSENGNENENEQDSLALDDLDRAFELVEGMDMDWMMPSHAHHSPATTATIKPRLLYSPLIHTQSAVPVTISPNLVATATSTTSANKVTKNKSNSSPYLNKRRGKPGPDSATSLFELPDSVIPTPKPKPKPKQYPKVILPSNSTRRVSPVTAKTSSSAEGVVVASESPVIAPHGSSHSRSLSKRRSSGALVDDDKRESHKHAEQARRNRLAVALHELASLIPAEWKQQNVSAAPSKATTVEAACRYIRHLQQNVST

Row | Sequence | relative binding free energy [kcal/mol]
1 | GGCGGCACGTGGTGGG | -0.03
2 | ATTAGCACGTGGGTTG | -0.16
3 | GTCGACACGTGAGGGC | 0.31
4 | GGGGGCACGTGGACAA | -0.14
5 | GAGTTCACGTGTTTTG | 0.39
6 | TTGGCCACGTGTAGTG | -0.05
7 | GGTGACACGTGGTGCG | -0.06
8 | TATCGCACGTGAGGGA | 0.07
9 | ATTAACACGTGGAGTG | 0.03
10 | CTTGTCACGTGAACGG | 0.27
11 | TTTAGCACGTGGCGTG | -0.11
12 | GGGGGCACGTGCATTA | -0.23
13 | GTAGGCACGTGACAGG | 0
14 | GAATGCACGTGGATTT | 0.16
15 | GTTCACACGTGTTTGG | 0.24
16 | TTGTGCACGTGATAGT | 0.01
17 | ATTCTCACGTGTTCTT | 0.3
18 | GTGGACACGTGTGGAG | 0.17
19 | AACTACACGTGGGTTG | 0.02
20 | TGGTACACGTGGCGGA | 0
21 | GTGTTCACGTGAGTGC | 0.33
22 | TTTAGCACGTGGTAGC | -0.26
23 | TTTGGCACGTGGCAGA | -0.23

Row | Sequence | relative binding free energy [kcal/mol]
24 | GTGCGCACGTGTGGGT | -0.07
25 | AGGGTCACGTGGATTT | 0.09
26 | AGGTCCACGTGCGGTG | -0.07
27 | ATTTACACGTGCTTTA | -0.05
28 | GGGAGCACGTGGTTGA | -0.15
29 | TTTTCCACGTGATTTG | 0.33
30 | TCTCGCACGTGAGGGG | 0.17
31 | TATGTCACGTGACTGT | 0.19
32 | TTGATCACGTGTTCGT | 0.18
33 | TGGCGCACGTGGTGCT | -0.2
34 | CTCTGCACGTGGTTGG | -0.02
35 | GGGTACACGTGTGAGT | 0.18
36 | ATTGTCACGTGAGGTC | 0.16
37 | GGTGCCACGTGTGTGG | 0.07
38 | GGGTGCACGTGTCGGA | 0.1
39 | GGGTTCACGTGACTTT | 0.3
40 | CATAGCACGTGGTGGT | -0.15
41 | CGCTGCACGTGAGGGG | 0.06
42 | GAACTCACGTGGGCGG | 0.26
43 | AAGTTCACGTGTCGTG | 0.1
44 | TGGAGCACGTGGGGTC | -0.09
45 | GGGTGCACGTGGGCAC | -0.15
46 | GGTTTCACGTGTCTGT | 0.37

Row | Sequence | relative binding free energy [kcal/mol]
47 | GGGCACACGTGCGGTG | -0.01
48 | CTATGCACGTGGTGGA | -0.06
49 | TCGTTCACGTGTTTAT | 0.24
50 | CGTGACACGTGGCGTG | -0.11
51 | TCTGTCACGTGGTCAG | -0.04
52 | TGGTTCACGTGGTAAC | 0.2
53 | AGTACCACGTGTCGGG | 0.01
54 | ATGGTCACGTGAAGAG | 0.35
55 | TGAGTCACGTGAGGGC | 0.16
56 | TTGGGCACGTGCCCGT | -0.19
57 | GTAAGCACGTGGTGGG | -0.09
58 | AATGTCACGTGAGGAT | 0.3
59 | CGCGTCACGTGAGGGG | 0.12
60 | ATAAGCACGTGGAGTA | -0.16
61 | GTAGACACGTGGGTTC | -0.14
62 | TGAGGCACGTGGAAGG | -0.05
63 | TGGGTCACGTGGCGCG | 0.1
64 | AGAGTCACGTGGATTG | 0.12
65 | GGTTACACGTGTCTGC | 0.28
66 | AGTGTCACGTGAGACT | 0.37
67 | TCGGGCACGTGTCAGT | 0.01
68 | TATCTCACGTGGAGTA | 0.23
69 | TATCTCACGTGATGGT | 0.31

Row | Sequence | relative binding free energy [kcal/mol]
70 | GAGGGCACGTGTCGAG | -0.05
71 | TAATTCACGTGTATTG | 0.18
72 | GGTTACACGTGTTGAG | 0.26
73 | CAGTTCACGTGTGCGT | 0.24
74 | ACGGGCACGTGTGTTG | -0.14
75 | TATGTCACGTGTTATT | 0.07
76 | GGGGGCACGTGCGGTC | -0.15
77 | GTTGTCACGTGATTTC | 0.46
78 | GCGTGCACGTGCGGTG | -0.03
79 | TAGGTCACGTGATATG | 0.13
80 | TGCTGCACGTGTCGTG | -0.02
81 | TGGGGCACGTGGCAAA | -0.23
82 | TTGGTCACGTGTTTCC | 0.17
83 | ATGTGCACGTGTGTTG | -0.03
84 | TGGAGCACGTGCGGCT | -0.1
85 | CGTGGCACGTGCGGGC | -0.11
86 | TGCCTCACGTGGGATT | 0.23
87 | TTTTTCACGTGATACT | 0.21
88 | TGCTGCACGTGATGGT | -0.01
89 | GTGCTCACGTGATTTA | 0.3
90 | GGTTGCACGTGCAGGC | 0.16
91 | AGGGACACGTGAAGTG | 0.14
92 | GCAGTCACGTGATTGT | 0.29

Row | Sequence | relative binding free energy [kcal/mol]
93 | ATGCACACGTGGGGTA | -0.13
94 | AAAGTCACGTGAAGAT | 0.31
95 | TGGTCCACGTGGGGGA | -0.11
96 | GTATTCACGTGCTGGC | 0.24
97 | TTATACACGTGCATGT | -0.04
98 | TGCCTCACGTGGGTTT | 0.07
99 | GGAGTCACGTGCTTTA | 0.19
100 | TGCGTCACGTGTGAAG | 0.03
101 | TGGAGCACGTGTTTCG | -0.01
102 | GGGTGCACGTGGGGGT | -0.07
103 | ACGGTCACGTGGGATG | -0.07
104 | TGGAACACGTGCAGGG | 0.04
105 | GGGAACACGTGGGTTT | -0.06
106 | AGTTACACGTGTAAGG | 0.1
107 | ATTGACACGTGATGCT | 0.1
108 | AGTCTCACGTGTAGTG | 0.1
109 | GTAGGCACGTGACGGT | 0.05
110 | TGGATCACGTGAGTTG | 0.35
111 | ACAGACACGTGTTGTT | 0.05
112 | TGATGCACGTGACGTT | 0.09
113 | TTGTGCACGTGATATG | 0.05
114 | TGGTTCACGTGAATGT | 0.37
115 | ATGCGCACGTGATGGT | -0.12
